Experimental findings from ChEMBL document CHEMBL4888484, “Replenishing the malaria drug discovery pipeline: Screening and hit evaluation of the MMV Hit Generation Library 1 (HGL1) against asexual blood stage Plasmodium falciparum ,using a nano luciferase reporter read-out” (2022) are described below.

The campaign covered roughly 150,000 compounds. About 540 (0.36%) showed an effect of 50% or more. This is one part of the list.

The test system of the experiment is Plasmodium falciparum. The experiment is described as follows: Primary screen in NF54 nanoGlo assay, in single point, at 2uM, 72h; a lower Z score goes with more inhibition. The experiment is classed as functional, Erythrocyte. The following applies: timepoint 72 hour.
Turning to `Cc1ccc(Cn2c([C@H]3CC(=O)Nc4n[nH]cc43)nc3ccccc32)cc1`, the % Inhibition (in general, the relative decrease from the control value, in per cent) is listed as -4% and the Z score is given as 0.56.

Turning to `C=CCn1c(-c2ccc(F)cc2)cn2cc(C(=O)N[C@@H](C)CO)nc2c1=O`, the “% Inhibition” value is listed as -3% and the Z score is listed as 0.65.

For `COc1cc(CN(C)CCc2ccncc2)c(Cl)cc1OC(C)C`, the “% Inhibition” value was -14% and the Z score was 1.43.

Turning to `Cc1ccnc(NC(=O)c2ccc(OCC3CCOCC3)nc2)n1`, the “% Inhibition” value is recorded as -12% and the Z score is 2.24.

For the compound `CCn1cnnc1CN1CCC(N2C[C@H](COc3ccc(F)cc3)OCC2=O)CC1`, the “% Inhibition” value is on record as -16% and the Z score came to 1.69.

As to `COc1ccc(-c2c(C(=O)N3CCN(C)CC3)nn3c(C)cc(C)nc23)cc1S(=O)(=O)N1CCCCC1`, the “% Inhibition” value is given as -10% and the Z score is listed as 1.71.

As for `COc1ccc2[nH]c([C@H](C)NC(=O)c3cccc4c3OCC4)nc2c1`, the “% Inhibition” value worked out at 7% and the Z score was -0.88.

As for `Cc1cc(-c2nc(-c3ccccc3)nn2[C@H]2CCS(=O)(=O)C2)c(C)n1C`, the “% Inhibition” value is recorded as -10% and the Z score is on record as 1.74.

Consider `C=CCOc1cccc(NC(=O)N(C)C2c3cc(Cl)cc(Cl)c3CC2O)c1` (centres undefined), for which the “% Inhibition” value was found to be 0% and the Z score is given as -0.01.

With `C=CCN(CC(=O)Nc1nc(-c2ccc(Cl)cc2)cn1-c1ccc(C)cc1)C(=O)c1ccccc1`, the “% Inhibition” value is 9% and the Z score is -1.1.

Turning to `Cc1c(Br)cc(C(=O)N[C@@H](CC(C)C)CN(C)C)c(=O)n1C`, the “% Inhibition” value is -1% and the Z score came out at 0.3.

`C[C@H]1C(=O)Nc2ccccc2CN1C(=O)Nc1cnnn1C`: the “% Inhibition” value is listed as -10% and the Z score stood at 1.24.

Regarding `O=C(NCc1cccc(F)c1)N1CC[C@@]2(CCCN(CC3CC3)C2=O)C1`, the “% Inhibition” value is given as -12% and the Z score is given as 2.03.

Take `CC(C)(C)OC(=O)NCc1cccnc1NC(=O)Cc1ccoc1`: the “% Inhibition” value was found to be 10% and the Z score is -1.94.

`Cc1c[nH]c(CNc2ncc(C(F)(F)F)cc2C)n1`: the “% Inhibition” value is recorded as -6% and the Z score came to 1.04.

In the case of `C#CC1CCN(C(=O)c2cc(Cl)c3c(c2)OCCCO3)CC1`, the “% Inhibition” value is recorded as -11% and the Z score was found to be 1.7.

On to `CCOC(=O)CC1(NCC(=O)N2CCC(C(=O)N3CCC[C@H](C)C3)CC2)CCCC1`, for which the “% Inhibition” value is given as -2% and the Z score amounted to 0.41.

Take `CCCCn1nc(Cn2cncn2)nc1CN1CC[C@H](c2ccccc2)C1`: the “% Inhibition” value is listed as -4% and the Z score was determined as 0.67.

Regarding `C=C(C)CC(C)C(=O)N[C@@H]1CN(C(=O)OC(C)(C)C)C[C@@H]1O` (some centres undefined), the “% Inhibition” value is given as -16% and the Z score is reported as 2.08.

For the compound `COCc1ncc(C(=O)N2Cc3ncccc3N3CCC[C@H]3C2)s1`, the “% Inhibition” value amounted to 5% and the Z score was -0.64.

Turning to `Cc1ccc(NCc2n[n+](CC(=O)c3ccccc3)c3n2CCCCC3)cc1`, the “% Inhibition” value is -40% and the Z score is reported as 4.69.

Consider `CCS(=O)(=O)N1C[C@@H]2CN(C(=O)c3cncc(C)c3)C[C@]2(c2nc(C)no2)C1`, for which the “% Inhibition” value was -22% and the Z score amounted to 2.91.

Regarding `Cc1ccc(C(=O)N2[C@H](C(=O)NCc3ccc4c(c3)OCO4)COC23CCN(C(=O)c2ccccc2C)CC3)cc1`, the “% Inhibition” value was -5% and the Z score is listed as 0.44.

Consider `CCCc1nnc(N2CCC(CCN3CCCC3)CC2)o1`, for which the “% Inhibition” value is -9% and the Z score was found to be 1.6.

`NC(=O)c1ccc(C(F)(F)F)n(C[C@H](O)c2cc(Cl)ccc2Cl)c1=O`: the “% Inhibition” value is listed as 37% and the Z score is on record as -5.52.

For the compound `CCc1cccc(S(=O)(=O)NC[C@H](O)C(=O)NC)c1`, the “% Inhibition” value came out at 7% and the Z score was -0.63.

Regarding `Cc1nnc(COC(=O)c2cc3ccc(C(C)(C)C)cc3[nH]2)o1`, the “% Inhibition” value is listed as 32% and the Z score is given as -0.43.

As to `COc1cc(Br)ccc1CN1CC(C(N)=O)O[C@H](C)C1` (some centres undefined), the “% Inhibition” value is recorded as -2% and the Z score is listed as 0.28.

With `CN(CC(=O)N(c1nc2ccccc2o1)C1CC1)S(C)(=O)=O`, the “% Inhibition” value is on record as 1% and the Z score was -0.06.

`CCNC(=O)N1CCc2nc(N3CCN(c4ccccc4F)CC3)nc(N(C)C)c2C1`: the “% Inhibition” value is -5% and the Z score was determined as 0.65.

On to `N#CCCN(CCC#N)C(=O)c1cc(Cl)ccc1Cl`, for which the “% Inhibition” value is recorded as -9% and the Z score stood at 1.77.

Consider `Cc1nc(NC2CCN(Cc3ccccc3)CC2)cc([C@H]2C[C@@H](O)C2)n1`, for which the “% Inhibition” value is reported as -17% and the Z score is reported as 1.64.

Take `O=C1Nc2ccccc2Oc2cc(N3CCCC3)c(S(=O)(=O)N3CCCC3)cc21`: the “% Inhibition” value is recorded as -10% and the Z score came out at 1.37.

In the case of `CC(C)CN1CC2(CCN(C(=O)Nc3cc(F)ccc3F)CC2)CC1=O`, the “% Inhibition” value is on record as -19% and the Z score is on record as 1.84.

On to `Cc1noc([C@H](C)N(C)Cc2cc(CN(C)C)cs2)n1`, for which the “% Inhibition” value is listed as -4% and the Z score stood at 0.59.

Turning to `Cc1cncc(N2CCn3c(Cc4cccc(F)c4)nnc3C2)n1`, the “% Inhibition” value is on record as -9% and the Z score is 1.65.

Turning to `Cc1ccc(CN2CCn3nnc(-c4nc(-c5ccsc5)no4)c3C2=O)cc1`, the “% Inhibition” value is -8% and the Z score came to 1.11.

In the case of `COc1ccc(CN2C(=O)N[C@@H](CC(=O)N3CCc4ccccc4C3)C2=O)cc1OC`, the “% Inhibition” value is given as -2% and the Z score is on record as 0.34.

Regarding `O=C1CC[C@@H](c2c[nH]c3ccccc23)N1Cc1ccccc1`, the “% Inhibition” value worked out at 2% and the Z score was -0.26.

Regarding `CCc1cc(C(=O)N2CCC(n3cn[nH]c3=O)CC2)ccc1O`, the “% Inhibition” value is given as -1% and the Z score is on record as 0.12.

As to `Cc1cc(CS(=O)(=O)Cc2ccc(F)cc2Cl)no1`, the “% Inhibition” value is listed as -14% and the Z score was determined as 2.21.

Take `Cc1cc(NC(=O)CN2CCC[C@H](Cc3nccn3C)C2)n(C)n1`: the “% Inhibition” value is given as 7% and the Z score is -0.96.

For the compound `CCN(Cc1nc(CCOC)no1)c1ccccc1Cl`, the “% Inhibition” value is listed as -3% and the Z score is 0.3.

With `COc1ccccc1CNC(=O)C1CCN(S(=O)(=O)c2cc(-c3noc(C)n3)sc2C)CC1`, the “% Inhibition” value is -24% and the Z score amounted to 2.11.

On to `CCCOC[C@H]1CCN(C(=O)c2cnc[nH]2)C1`, for which the “% Inhibition” value was determined as 3% and the Z score is on record as -0.51.

On to `COc1cc(NC(=O)c2cc(C)n3nc(C)cc3n2)cc(-n2cnnn2)c1`, for which the “% Inhibition” value was -14% and the Z score came out at 1.52.

`COc1cc(C(=O)O[C@@H](C)c2ccccc2F)on1`: the “% Inhibition” value came out at 0% and the Z score amounted to 0.02.

For the compound `CC(C)N1C(=O)CN(C(=O)c2nc(-c3ccccc3)cs2)CC1(C)C`, the “% Inhibition” value is reported as -5% and the Z score was determined as 0.72.

Regarding `Cc1ncc(CN(C)C(=O)C2CCCCC2C(=O)N2CCCC2)s1` (centres undefined), the “% Inhibition” value is recorded as -2% and the Z score was 0.23.

Regarding `CCc1cccc(/N=C(\NC(=O)c2ccccc2)N2CCN(c3ccccc3)CC2)c1`, the “% Inhibition” value is -1% and the Z score is given as 0.16.

In the case of `CCN(Cc1ccc(C)o1)Cc1cc2ccc(C)cc2[nH]c1=O`, the “% Inhibition” value was determined as 2% and the Z score is reported as -0.25.

Turning to `CN1CCN2C[C@@H](NC(=O)C(=O)CCc3ccccc3)C[C@H]2C1`, the “% Inhibition” value is -4% and the Z score is listed as 0.64.
